# Measured values: the supplement of paper PMC8728848
# Some of the results follow.
# B1: Clrb (Mus musculus) (protein)
# chain: ITGATKTEQIPVNKTYAACPQNWIGVENKCFYFSEYPSNWTFAQAFCMAQEAQLARFDNQDELNFLMRYKANFDSWIGLHRESSEHPWKWTDNTEYNNTIPIRGEERFAYLNNNGISSTRIYSLRMWICSKLNSYSLHCQTPFFPSGTKHHHHHHHHG
# Experiments:
# Assay in all cases: glycan array binding signal (z-score within array); higher = stronger binding
# Conditions in all cases: glycan notation: IUPAC condensed, linker removed
# [1] = biological target: Man(a1-2)Man(a1-3)[Man(a1-2)Man(a1-6)]Man(a1-6)[Man(a1-2)Man(a1-2)Man(a1-3)]Man(b1-4)GlcNAc(b1-4)GlcNAc
# Method in brief: (§1)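 Glycan array data came from 3228 arrays in the Consortium for Functional Glycomics database, and only arrays with an available protein sequence were kept. Glycan names were put into IUPAC-condensed notation, and columns mapping to the same glycan were averaged. The binding signal is a within-array Z-score, averaged across arrays of one protein sequence run at different concentrations or buffers and across linkers. A negative Z-score can be read as non-binding.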
# [2] = biological target: Man(a1-2)Man(a1-3)[Man(a1-6)]Man(a1-6)[Man(a1-2)Man(a1-3)]Man(b1-4)GlcNAc(b1-4)GlcNAc
# Method in brief: as §1
# [3] = biological target: Man(a1-2)Man(a1-6)[Man(a1-3)]Man(a1-6)[Man(a1-2)Man(a1-2)Man(a1-3)]Man
# Method in brief: as §1
# [4] = biological target: Man(a1-2)Man(a1-6)[Man(a1-3)]Man(a1-6)[Man(a1-2)Man(a1-2)Man(a1-3)]Man(b1-4)GlcNAc(b1-4)GlcNAc
# Method in brief: as §1
# Man(a1-3)[Man(a1-6)]Man = biological target: Man(a1-3)[Man(a1-6)]Man
# Method in brief: as §1
# [5] = biological target: Man(a1-3)[Man(a1-6)]Man(a1-6)[Man(a1-2)Man(a1-3)]Man(b1-4)GlcNAc(b1-4)GlcNAc
# Method in brief: as §1
# [6] = biological target: Man(a1-3)[Man(a1-6)]Man(a1-6)[Man(a1-3)]Man
# Method in brief: as §1
# [7] = biological target: Man(a1-3)[Man(a1-6)]Man(a1-6)[Man(a1-3)]Man(b1-4)GlcNAc(b1-4)GlcNAc
# Method in brief: as §1
# [8] = biological target: Man(a1-3)[Man(a1-6)]Man(b1-4)GlcNAc(b1-4)GlcNAc
# Method in brief: as §1
# [9] = biological target: Man(a1-3)[Man(a1-6)]Man(b1-4)GlcNAc(b1-4)[Fuc(a1-6)]GlcNAc
# Method in brief: as §1
# Man(a1-6)Man = biological target: Man(a1-6)Man
# Method in brief: as §1
# Man(b1-4)GlcNAc = biological target: Man(b1-4)GlcNAc
# Method in brief: as §1
# MurNAc(b1-4)GlcNAc = biological target: MurNAc(b1-4)GlcNAc
# Method in brief: as §1
# Neu5Ac(a2-3)Gal = biological target: Neu5Ac(a2-3)Gal
# Method in brief: as §1
# [10] = biological target: Neu5Ac(a2-3)Gal(b1-3)GalNAc
# Method in brief: as §1
# [11] = biological target: Neu5Ac(a2-3)Gal(b1-3)GalNAc(b1-3)Gal(a1-4)Gal(b1-4)Glc
# Method in brief: as §1
# [12] = biological target: Neu5Ac(a2-3)Gal(b1-3)GalNAc(b1-4)[Neu5Ac(a2-3)]Gal(b1-4)Glc
# Method in brief: as §1
# [13] = biological target: Neu5Ac(a2-3)Gal(b1-3)GalNAc(b1-4)[Neu5Ac(a2-8)Neu5Ac(a2-3)]Gal(b1-4)Glc
# Method in brief: as §1
# [14] = biological target: Neu5Ac(a2-3)Gal(b1-3)GalNAc6S
# Method in brief: as §1
# [15] = biological target: Neu5Ac(a2-3)Gal(b1-3)GlcNAc
# Method in brief: as §1
# [16] = biological target: Neu5Ac(a2-3)Gal(b1-3)GlcNAc(b1-2)Man
# Method in brief: as §1
# [17] = biological target: Neu5Ac(a2-3)Gal(b1-3)GlcNAc(b1-2)Man(a1-3)[GlcNAc(b1-4)][Neu5Ac(a2-3)Gal(b1-3)GlcNAc(b1-2)Man(a1-6)]Man(b1-4)GlcNAc(b1-4)GlcNAc
# Method in brief: as §1
# [18] = biological target: Neu5Ac(a2-3)Gal(b1-3)GlcNAc(b1-2)Man(a1-3)[Neu5Ac(a2-3)Gal(b1-3)GlcNAc(b1-2)Man(a1-6)]Man(b1-4)GlcNAc(b1-4)GlcNAc
# Method in brief: as §1
# [19] = biological target: Neu5Ac(a2-3)Gal(b1-3)GlcNAc(b1-3)Gal(b1-3)GlcNAc
# Method in brief: as §1
# [20] = biological target: Neu5Ac(a2-3)Gal(b1-3)GlcNAc(b1-3)Gal(b1-4)GlcNAc
# Method in brief: as §1
# [21] = biological target: Neu5Ac(a2-3)Gal(b1-3)GlcNAc(b1-3)GalNAc
# Method in brief: as §1
# [22] = biological target: Neu5Ac(a2-3)Gal(b1-3)GlcNAc(b1-4)Gal(b1-4)Glc
# Method in brief: as §1
# [23] = biological target: Neu5Ac(a2-3)Gal(b1-3)GlcNAc(b1-6)GalNAc
# Method in brief: as §1
# [24] = biological target: Neu5Ac(a2-3)Gal(b1-3)GlcNAc6S
# Method in brief: as §1
# [25] = biological target: Neu5Ac(a2-3)Gal(b1-3)[Fuc(a1-4)]GlcNAc
# Method in brief: as §1
# [26] = biological target: Neu5Ac(a2-3)Gal(b1-3)[Fuc(a1-4)]GlcNAc(b1-3)Gal(b1-3)[Fuc(a1-4)]GlcNAc
# Method in brief: as §1
# [27] = biological target: Neu5Ac(a2-3)Gal(b1-3)[Fuc(a1-4)]GlcNAc(b1-3)Gal(b1-4)[Fuc(a1-3)]GlcNAc
# Method in brief: as §1
# [28] = biological target: Neu5Ac(a2-3)Gal(b1-3)[GlcNAc(b1-6)]GalNAc
# Method in brief: as §1
# [29] = biological target: Neu5Ac(a2-3)Gal(b1-3)[Neu5Ac(a2-6)]GalNAc
# Method in brief: as §1
# [30] = biological target: Neu5Ac(a2-3)Gal(b1-3)[Neu5Ac(a2-6)]GlcNAc(b1-3)[Fuc(a1-3)[Gal(b1-4)]GlcNAc(b1-6)]Gal(b1-4)Glc
# Method in brief: as §1
# [31] = biological target: Neu5Ac(a2-3)Gal(b1-3)]Neu5Ac(a2-3)Gal(b1-4)]GlcNAc
# Method in brief: as §1
# Neu5Ac(a2-3)Gal(b1-4)Glc = biological target: Neu5Ac(a2-3)Gal(b1-4)Glc
# Method in brief: as §1
binder,measurement,setting,value
B1,glycan array binding signal (z-score),[1],-0.252
same,glycan array binding signal (z-score),[2],-0.42
same,glycan array binding signal (z-score),[3],-0.082
same,glycan array binding signal (z-score),[4],-0.503
same,glycan array binding signal (z-score),Man(a1-3)[Man(a1-6)]Man,-0.406
same,glycan array binding signal (z-score),[5],-0.424
same,glycan array binding signal (z-score),[6],-0.427
same,glycan array binding signal (z-score),[7],-0.44
same,glycan array binding signal (z-score),[8],-0.297
same,glycan array binding signal (z-score),[9],-0.228
same,glycan array binding signal (z-score),Man(a1-6)Man,-0.312
same,glycan array binding signal (z-score),Man(b1-4)GlcNAc,-0.371
same,glycan array binding signal (z-score),MurNAc(b1-4)GlcNAc,2.51
same,glycan array binding signal (z-score),Neu5Ac(a2-3)Gal,-0.322
same,glycan array binding signal (z-score),[10],-0.361
same,glycan array binding signal (z-score),[11],-0.431
same,glycan array binding signal (z-score),[12],-0.475
same,glycan array binding signal (z-score),[13],-0.207
same,glycan array binding signal (z-score),[14],-0.305
same,glycan array binding signal (z-score),[15],-0.306
same,glycan array binding signal (z-score),[16],-0.313
same,glycan array binding signal (z-score),[17],-0.36
same,glycan array binding signal (z-score),[18],-0.373
same,glycan array binding signal (z-score),[19],-0.434
same,glycan array binding signal (z-score),[20],-0.054
same,glycan array binding signal (z-score),[21],-0.447
same,glycan array binding signal (z-score),[22],-0.291
same,glycan array binding signal (z-score),[23],-0.477
same,glycan array binding signal (z-score),[24],-0.211
same,glycan array binding signal (z-score),[25],-0.041
same,glycan array binding signal (z-score),[26],-0.359
same,glycan array binding signal (z-score),[27],-0.248
same,glycan array binding signal (z-score),[28],-0.419
same,glycan array binding signal (z-score),[29],-0.386
same,glycan array binding signal (z-score),[30],-0.305
same,glycan array binding signal (z-score),[31],-0.312
same,glycan array binding signal (z-score),Neu5Ac(a2-3)Gal(b1-4)Glc,-0.397
